The supplement of paper PMC4166925
± gives the standard deviation of the averaged measurements. Whole data set: some 33,000 sequences, median “E-score (dimensionless, -0.5 to 0.5)” near -0.049, cut for the highest 2% near 0.37. This is one part of the list.

Each sequence was assayed on T1, PmTbr T-box DNA-binding domain (GST fusion) (assay: PBM E-score of 8-mer (E-score (dimensionless, -0.5 to 0.5)); Tbr is Tbrain of the sea star Patiria miniata (Pm) or the sea urchin Strongylocentrotus purpuratus (Sp); higher = stronger binding preference; most listed sequences are background and not binding sites). Conditions: the construct has about 5 more residues each side.
T1 sequence: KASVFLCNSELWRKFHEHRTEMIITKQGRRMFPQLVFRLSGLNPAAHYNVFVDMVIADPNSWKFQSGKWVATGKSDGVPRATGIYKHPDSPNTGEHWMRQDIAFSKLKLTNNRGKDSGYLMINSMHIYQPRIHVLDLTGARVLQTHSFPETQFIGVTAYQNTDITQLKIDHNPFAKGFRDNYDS
Method in brief: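 Each ungapped 8-mer received an enrichment E-score from the Universal PBM Analysis Suite, averaged over duplicate arrays. The proteins were Tbr T-box DNA-binding domains, covering the whole T-box plus about five flanking residues, fused to GST and expressed in BL21 E. coli at 20 °C before glutathione affinity purification. Universal Agilent oligonucleotide arrays were made double-stranded by primer extension and incubated with 200 nM protein in PBS (pH 7.5). The arrays were then scanned and quantified, and every 8-mer was scored from probe intensities.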

| Sequence | PBM E-score of 8-mer |
| --- | --- |
| CAGACGGA | -0.0715 ± 0.02 |
| AAACCTGT | 0.0415 ± 0.013 |
| AAGGCATG | -0.218 ± 0.093 |
| AGGCGTAA | 0.215 ± 0.017 |
| CGCATACC | -0.202 ± 0.0048 |
| AAAGTTTC | -0.0531 ± 0.055 |
| GAGTCGCA | 0.237 ± 0.0028 |
| CAGGTGAG | 0.422 ± 0.007 |
| GGCAATGA | -0.0785 ± 0.12 |
| CTGACTTC | -0.0913 ± 0.025 |
| GGCCCCAC | 0.0114 ± 0.074 |
| CACGCTGG | 0.0207 ± 0.026 |
| CAAGTACA | 0.0375 ± 0.041 |
| CATCAGGG | -0.024 ± 0.045 |
| AGCAACCG | -0.0515 ± 0.037 |
| AATCGGCC | -0.189 ± 0.027 |
| CCGATCCA | -0.117 ± 0.03 |
| AACGGGCT | -0.184 ± 0.071 |
| GGTGATTA | 0.193 ± 0.065 |
| ACCCTCCA | 0.0539 ± 0.02 |
| AACTTGCG | 0.137 ± 0.02 |
| ATCAGACA | -0.122 ± 0.09 |
| CTAGTTAC | -0.0386 ± 0.035 |
| GTACATTA | -0.228 ± 0.017 |
| AAGGATTA | -0.163 ± 0.041 |

| Sequence | PBM E-score of 8-mer |
| --- | --- |
| AGGTTGAC | 0.179 ± 0.021 |
| AGAGATTA | -0.207 ± 0.0077 |
| ACCCGACG | 0.19 ± 0.0099 |
| ACTAACCA | 0.0293 ± 0.14 |
| GCGCCTAA | 0.144 ± 0.0023 |
| CATAGGAG | -0.0925 ± 0.037 |
| CACCGAAA | -0.136 ± 0.0079 |
| CTCACAGC | 0.32 ± 0.026 |
| ACCAATTG | -0.137 ± 0.0072 |
| ATCTGCGG | -0.102 ± 0.0068 |
| AGAACCGG | -0.197 ± 0.043 |
| ACGCCTCC | 0.348 ± 0.017 |
| ATCCCCAG | -0.138 ± 0.097 |
| AAATCCTA | -0.272 ± 0.029 |
| ACTGAAGA | -0.088 ± 0.078 |
| AGGGGGAG | -0.216 ± 0.021 |
| AGCCGTTG | -0.0838 ± 0.0032 |
| CCGTTGCC | 0.0157 ± 0.0058 |
| CCCGGCGC | 0.0568 ± 0.086 |
| ATCTGAAT | -0.103 ± 0.0079 |
| ACAGGGAG | -0.0135 ± 0.0075 |
| GGCTGTCA | 0.237 ± 0.024 |
| CCGAACTC | -0.178 ± 0.06 |
| AGTGCAGG | -0.143 ± 0.038 |
| AGATACCA | -0.199 ± 0.12 |

| Sequence | PBM E-score of 8-mer |
| --- | --- |
| CCATGTAA | -0.0283 ± 0.12 |
| AGCGGAAA | -0.0011 ± 0.022 |
| ACTCTCAT | -0.00605 ± 0.049 |
| ATACCTTA | 0.0857 ± 0.093 |
| TAAGGCAA | -0.00958 ± 0.091 |
| AGTGTTAG | 0.407 ± 0.014 |
| TCAGGCCA | -0.242 ± 0.011 |
| CCACGGCA | -0.00996 ± 0.0087 |
| AGTCATTG | -0.17 ± 0.052 |
| CTCCAGGC | -0.212 ± 0.045 |
| CTTGCGGC | -0.0279 ± 0.059 |
| AATCCCGG | -0.136 ± 0.02 |
| GGCAGCAA | 0.0182 ± 0.0089 |
| GCGAACGA | 0.243 ± 0.031 |
| CTTCTGCA | -0.0259 ± 0.082 |
| ACACCCTC | 0.429 ± 0.0062 |
| ATGCGACA | 0.3323 ± 0.0011 |
| GGCCGGCC | -0.0533 ± 0.00084 |
| ACAATTTA | -0.0673 ± 0.027 |
| AACGCACG | 0.0465 ± 0.039 |
| TCACACAA | 0.414 ± 0.015 |
| GAATCTGA | -0.0454 ± 0.055 |
| ACGTCCGA | -0.132 ± 0.0042 |
| AGTCTTAC | -0.0984 ± 0.0076 |
| AGCTTGCA | -0.0385 ± 0.069 |

| Sequence | PBM E-score of 8-mer |
| --- | --- |
| AAGTTTGA | -0.0349 ± 0.063 |
| CACGAGCC | 0.0885 ± 0.03 |
| AATCGTGT | 0.217 ± 0.036 |
| AAGATGTC | 0.0599 ± 0.045 |
| CTTTCCAA | -0.318 ± 0.022 |
| AAGCACAT | 0.00968 ± 0.019 |
| AACTCGGA | -0.14 ± 0.011 |
| AGACGTCA | -0.0228 ± 0.0035 |
| CATGGTGG | 0.0716 ± 0.00076 |
| GCAGACCC | -0.0793 ± 0.046 |
| CGTATTCC | -0.23 ± 0.036 |
| CGGCAGCC | -0.13 ± 0.034 |
| AATCTTAC | -0.185 ± 0.01 |
| AGTCCATA | -0.27 ± 0.031 |
| GATCCGAC | -0.0863 ± 0.057 |
| ACTCGGCT | -0.061 ± 0.032 |
| AAGTAGGG | -0.216 ± 0.013 |
| CAACCTAC | 0.16 ± 0.015 |
| AGGGCCGG | -0.188 ± 0.027 |
| AACTGGGC | -0.0959 ± 0.1 |
| AACTTTTC | 0.117 ± 0.047 |
| GGGACGCA | -0.112 ± 0.0018 |
| AACATCCC | -0.117 ± 0.047 |
| CAGTATTA | -0.0935 ± 0.092 |
| ACGAGAAT | 0.0844 ± 0.012 |

| Sequence | PBM E-score of 8-mer |
| --- | --- |
| CGCACTAG | 0.167 ± 0.021 |
| CTATCCCC | -0.15 ± 0.059 |
| AATTGACC | -0.208 ± 0.049 |
| CAGGACGA | -0.13 ± 0.02 |
| AGGTTCCC | -0.269 ± 0.027 |
| CGCTCTAG | 0.124 ± 0.066 |
| AAACTGCA | -0.152 ± 0.048 |
| ACCGGAAG | 0.0984 ± 0.051 |
| AGAGCTAT | -0.0757 ± 0.054 |
| GTCTACAC | 0.286 ± 0.043 |
| CCTACTGC | -0.0677 ± 0.056 |
| CATCCCTA | -0.227 ± 0.0076 |
| AACTAACA | 0.265 ± 0.033 |
| GTCAGTAA | -0.0125 ± 0.075 |
| AATATCCG | -0.2324 ± 0.00027 |
| AGTAACCA | -0.00474 ± 0.00078 |
| AACCACTC | -0.0948 ± 0.038 |
| AAGCATCT | -0.112 ± 0.053 |
| CGAGCGAC | 0.111 ± 0.021 |
| CCCTATCA | -0.00244 ± 0.085 |
| ACAATTGT | 0.186 ± 0.032 |
| ACCTATGA | -0.00105 ± 0.083 |
| CCCCTCAA | -0.0994 ± 0.049 |
| GGGCTTAC | -0.109 ± 0.037 |
| AAGGTGTG | 0.4811 ± 0.0016 |

| Sequence | PBM E-score of 8-mer |
| --- | --- |
| CTACGTCC | -0.131 ± 0.094 |
| GTACCCCA | -0.22 ± 0.027 |
| ACAGGGCT | -0.243 ± 0.0088 |
| ACATTACC | -0.144 ± 0.023 |
| ATTTAAGA | -0.165 ± 0.058 |
| ACGTAGCC | -0.223 ± 0.051 |
| ATTAGCCA | -0.102 ± 0.033 |
| GTCTATCA | -0.0452 ± 0.061 |
| CCGGGGAC | -0.19 ± 0.084 |
| ACATGATA | -0.00038 ± 0.028 |
| ACAGGAAA | 0.0152 ± 0.054 |
| ACCTCGAA | 0.197 ± 0.023 |
| GCTGTTCA | 0.0254 ± 0.024 |
| ACAGAATA | -0.305 ± 0.0032 |
| GAATACAC | 0.0212 ± 0.11 |
| TAGGACAA | -0.135 ± 0.06 |
| GCAAGTGA | 0.3016 ± 0.003 |
| AGGTTACA | -0.0341 ± 0.0097 |
| CCCGTGGC | -0.00684 ± 0.023 |
| AATCCAAA | 0.0643 ± 0.04 |
| GCCACCTA | 0.336 ± 0.033 |
| GTGCAGCA | -0.164 ± 0.039 |
| CATGGGCA | -0.0349 ± 0.041 |
| AATTCACG | 0.365 ± 0.0071 |
| CCAAGTGC | 0.291 ± 0.032 |

| Sequence | PBM E-score of 8-mer |
| --- | --- |
| GACCCGGA | -0.0679 ± 0.07 |
| GACATGGC | -0.24 ± 0.08 |
| CATACCCG | -0.0273 ± 0.091 |
| ACACGCCC | 0.145 ± 0.041 |
| GGAATCAA | -0.0556 ± 0.03 |
| GAGTACAA | -0.0531 ± 0.051 |
| ATAGTGAA | 0.0433 ± 0.046 |
| CGGACAAC | -0.106 ± 0.065 |
| CCCGAGCA | -0.168 ± 0.032 |
| CACATGAC | 0.194 ± 0.061 |
| AATAATGT | -0.106 ± 0.067 |
| CGAACGGA | -0.0168 ± 0.028 |
| ACAAACAT | 0.064 ± 0.042 |
| AAAAGCTG | 0.0974 ± 0.097 |
| CCAGAGTC | -0.196 ± 0.0072 |
| GTAACGCA | 0.103 ± 0.06 |
| ATGTCTTA | -0.111 ± 0.1 |
| CCAGCTAA | -0.0644 ± 0.011 |
| ATTCAGTA | -0.258 ± 0.061 |
| ACACGGGT | 0.158 ± 0.045 |
| ACCTACAC | 0.128 ± 0.078 |
| GACCGGCA | 0.0892 ± 0.02 |
